# Some of the results follow.
# Tested on: PfAP2-HC AP2 domain (GST-tagged)
# Assay: gcPBM binding intensity (ln(normalized median fluorescence intensity)); higher = stronger DNA binding
# How it was run: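 GST-tagged P. falciparum DNA-binding domains produced in E. coli were incubated for 1 h on an Agilent 4 × 180k array of primer-extended double-stranded 36-bp intergenic genomic probes with negative controls. Binding intensity is the highest Masliner-normalised natural-log median intensity across replicate spots of either probe orientation, with bound protein detected by Alexa488 anti-GST antibody at 488 nm.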
row,Sequence,gcPBM binding intensity (ln)
1,AAATTAAATGATAGAGCATGCGCTAAAAATGAGAAA [TGCATGCA_site937],10
2,ACACATATAATAGTTACATGCAAAAATACTTTTATT [TGCATGCA_site785],10
3,TTTTTATAACATAAAAGTACATATTTTTAATTTAAT [XGTACX_site4394],9.35
4,TTTTTTTTATTATAAATATATATATTATAAAACGAA [XGTACX_negctrl_site189],9.29
5,ACCCAAGAGAAAAGAGAAAGAAATATGTGTATATTG [GTGCAC_negctrl_site214],9.48
6,TTATAGTAATAATAATGTACATTTATACACATATAT [XGTACX_site1965],9.77
7,ATATATATATATATAACATGCAAAGTTCAAAAAAAA [TGCATGCA_site943],9.72
8,AAAAAAAACAGACACACACACACATATACATACATA [CACACA_site2665],11.5
9,ATTTTATTTAAATACACACACATATATATATTATAT [CACACA_site4607],10
10,CACAGACACCCATACACACACATACCCATATATATA [CACACA_site5023],10.3
11,CTACATATGTATAATATGCACACGTCATTTTCCCCT [CACACA_site2107],9.81
12,AATTATCAGGAATGATGTACTGAAATAAAAAAAAAA [XGTACX_site3280],9.6
13,AAAAAAAAAAAAAAAGCACACATCATATTTTAATTC [CACACA_site9109],9.9
14,ACACAAAAATGAAAAATGAAAAGGGTAATATATATA [CACACA_negctrl_site1490],9.82
15,AGTATTATTTACTGCGCATGCTATTTATATATATTA [TGCATGCA_site876],9.81
16,AATAGAAATTATATAAACATAAATGAATAAATAAAT [CACACA_negctrl_site1817],9.82
17,ACCATATATTAAAAAGTGCATTAAATATATAAATAT [GTGCAC_site9443],9.6
18,AATTAAATGGATAAATGTACATATGTGAATATATTT [XGTACX_site84],9.83
19,TTACACAAGGATAAAAACATATGTATGATTATATAT [CACACA_negctrl_site654],9.75

row,Sequence,gcPBM binding intensity (ln)
1,AAAATTTGAAAAAGGGGTACTTAATAAAAGTTTCAT [XGTACX_site932],9.56
2,ATACTGTATAGTCGCACACAAAAATATAAAATATTT [CACACA_site6004],9.94
3,ATAATTAACAAATACACACACACACCCAGACAAAAA [CACACA_site4445],10.8
4,TTTTTAATCATAATATGTACATATAAAAATGGTTTG [XGTACX_site3996],9.49
5,AATATGTCTTAAAAAAGTACATAAATTTTAACTTCA [XGTACX_site6670],9.38
6,TTAAAAGAAAATAGGTGTACACATAATATATACATA [XGTACX_site7697],9.97
7,AAACAAATAAAAATATGTACACATTTTTTCATTATG [XGTACX_site5449],9.7
8,AAAATATTAAATATGTGTACATATAATAGTTCAATG [XGTACX_site5957],9.78
9,AACAATTAGAATAACGCATGCATTTATAATATAGAA [TGCATGCA_site595],9.8
10,TGTGTATATATAAATACACACCAAATGTTAATATAT [CACACA_site8501],9.76
11,TAATAAATCAAATGCACACACACAAAAAAAAAAAAA [CACACA_site161],10.3
12,TTTTTATTTTTTTATGCATGTGATGAAACGTGCCTA [TGCATGCA_site141],9.7
13,AAAAGGAGCAAATACAAAAAAATGAACAAAAAAAAA [CACACA_negctrl_site716],9.66
14,TTTTTCTTTGAATAAATACACACGAGAAATGAAAGT [CACACA_site1688],9.7
15,CATACCTATAGACACACACACACACGCACGCACAAA [CACACA_site6374],10.4
16,TTTTGTAATGCTTTTTTTTTTTTTTTTTTTTTTTTT [CACACA_negctrl_site932],9.2
17,ACATAGATCATAGGTTGTACGAAGGTATCCTTTATT [XGTACX_site694],9.65
18,TCATATATATATATATGTACATATTTATGTATGTAT [XGTACX_site6291],9.68
19,ACTTTTTGAATGTTTGCACACAAATCTCATAATTTT [CACACA_site358],10.1

row,Sequence,gcPBM binding intensity (ln)
1,TTTTTATAAATAATAAGGCGTATGAAAATAAAATAA [TGCATGCA_negctrl_site421],9.47
2,TCAAAATATCCAAAAGAATAAAGAAAAAAAAAAAGA [CACACA_negctrl_site1377],9.6
3,ATATAACATTGTTTTGCATGTAAATATTCAATTTTT [TGCATGCA_site758],9.64
4,TCAAATTTAATCATAACACACATTCACATATGAATT [CACACA_site3199],9.69
5,ATATAATGAAGTGAATGTACATATAAAATGTAAAAA [XGTACX_site8052],9.97
6,AAAAAAAAAAAACACACACACAAATACAAATACATA [CACACA_site415],11.5
7,GAAACGTTTTTTCAGTGTACATTTTACCGATTTGTA [XGTACX_site8249],9.71
8,TAGTATAATATATATTGTACGTTTTAATTGTTTATA [XGTACX_site2731],9.56
9,TAAAGCAACTGAAACACACAAATTTTTTTTTTTTTT [CACACA_site7499],9.88
10,AAACTGAAAAAAATATGTACATATTTATATCTTATA [XGTACX_site3011],9.61
11,ATTGTATAAAAATGTACATGCAATAAATTTAGTTCT [TGCATGCA_site675],9.68
12,TTATTAACGGAACTCTGTACTTAAAAAATTTTAGAA [XGTACX_site8787],9.3
13,AAAAAAACAGAAAACACACAAATTATCTTATAATTA [CACACA_site6282],9.8
14,TATATAAGAATATATACACACATATCTGTATTTATA [CACACA_site5231],9.73
15,ATTGTTTCATTAAAATGTACATAAATTGTGTATAAT [XGTACX_site5341],9.59
16,GAGTTTATATTTTAAGCATGCATATGTTATTATTAT [TGCATGCA_site1049],9.89
17,TATATCAAAAACGAGACATGCATGCCGTTCATTTTG [TGCATGCA_site211],9.52
18,TCTTTTTTGAAGCATTTTGTTTTTTAATAAGTAAAA [TGCATGCA_negctrl_site247],9.35
